SMILES strings stand for the structures. In all, about 13,000 compounds were measured (“IFI”: median about 4, highest 2% from about 17 on). This is one part of the list.

The nature of the assay: GSK_TCMDC: Inhibition Frequency Index (IFI). The number of non-kinase HTS assays where a compound showed > 50 % inhibition, expressed as a percentage of the number of such assays in which the compound was tested (-0 is zero). Type of assay: functional.
In turn, `COc1ccc2nccc([C@H](O)CN3CCC(NCc4cc(C)c5c(c4)OCCO5)CC3)c2n1` yielded an IFI of 0.96%. The value for `N#Cc1ccc2[nH]cc(CN3CCC4(CC3)CN(CCNCc3ccccc3)C(=O)O4)c2c1` was 0.85%. For `CCCCSc1c(CNCCCCCCNCc2ccc3ccccc3c2SCCCC)ccc2ccccc12`, the IFI is 15.8%. As to `COc1ccc(CNC2CCN(C)CC2)cc1-c1ccc(S(=O)(=O)NC2CCC2)s1`, the IFI stood at 8.33%. As for `CCOC(=O)c1ccc(NC(=O)Nc2cccc(-c3cccc(-c4nc5cccc(C)c5[nH]4)c3)c2)cc1`, the IFI is 10.8%.

For `CCCSc1nc2c(c(=O)n1Cc1ccco1)C1(CCCCC1)Cc1ccccc1-2`, the IFI stood at 2.9%. For the compound `COc1cc2c(cc1O)[C@@H]1[C@H](O)[C@@H](O)C=C3CCN(C2)[C@H]31`, the IFI was determined as 4.14%. `CCOC(=O)c1ccc(OCCCCCCOc2ccc(Br)cc2)cc1` registered an IFI of 0.7%.

For the compound `COc1ccc2nccc(N3CCC(CCNCc4ccc5c(n4)NC(=O)CS5)CC3)c2n1`, the IFI turned out to be 4.35%. `CC(=O)Nc1ccc(CN(Cc2ccc(F)cc2)Cc2cccc(Oc3ccccc3)c2)cc1`: the IFI amounted to 0.72%. The compound `Cc1c(Cl)cccc1S(=O)(=O)Nc1cccc(CCN2CCC(N3CCCCC3)CC2)c1` returned an IFI of 14.3%. The compound `COc1ccc(CNCc2cccc(-c3ccc(-c4nc5ccccc5[nH]4)cc3)c2)cc1` returned an IFI of 10.1%. The compound `CC(C)CC(C)NC(=O)C1Cc2c([nH]c3cc(Cl)ccc23)C2(CCN(CCc3ccccc3)CC2)N1` (stereo not drawn) gave an IFI of 5.67%. `Cc1ccc(NC(=S)N2CCCN(CCCCCNC(=O)/C=C/c3ccc(Cl)c(Cl)c3)CC2)cc1Cl`: the IFI was 6.4%. Consider `CCCN(Cc1nnc(-c2cccs2)o1)C(=O)CSc1nnnn1-c1ccc(C)c(C)c1`, for which the IFI stood at 2.78%. Regarding `N#Cc1ccc(-c2ccc(C(=O)NCCCCN3CCC(c4cc(Br)c5c(c4OCC(N)=O)CCCC5)CC3)cc2)cc1`, the IFI was found to be 8.66%. As for `Cc1cccc(Nc2nccc(NCC(O)c3cccc(C(F)(F)F)c3)n2)c1` (stereo not drawn), the IFI came to 14.3%. As to `C(=Cc1nc2ccccc2s1)c1ccc2c(c1)OCCO2`, the IFI came to 4.84%. `CNC(=O)C1Cc2c([nH]c3cc(Cl)ccc23)C2(CCN(CCc3ccccc3)CC2)N1` (stereo not drawn) registered an IFI of 5%. Compound `CC(C)c1cccc(OCC2CCN(c3ncc(C(=O)Nc4ccccc4)cc3Cl)CC2)c1` gave an IFI of 0%. For `O=C(Nc1ccc(CN2CCOCC2)cc1)c1ccc(-c2cc(Cl)ccc2Cl)o1`, the IFI came to 3.53%. On to `Cc1ccc(Nc2nc(C)cc(N3CCN(c4ccccc4)CC3)n2)cc1`, for which the IFI was 14.8%. For the compound `C=CCc1cc(Cc2cnc(N)nc2N)cc(CCC)c1OC`, the IFI amounted to 1.42%. Regarding `O=C(c1ccc(-c2cccc(-c3nc4cc(F)ccc4[nH]3)c2)cc1)N1CCCCC1CN1CCC(O)C1` (stereo not drawn), the IFI amounted to 2.61%. On to `Cc1cc(=NN=Cc2ccccc2Cl)c2cccc(C)c2[nH]1`, for which the IFI was -0%. Compound `COc1ccccc1N1CCN(c2cccc3c2nc(-c2cncc(C#N)c2)n3CCNCc2ccccc2)CC1` registered an IFI of 3.45%. `O=C(Nc1ccc(Cl)c(Cl)c1)N1CCC(CNCc2cccc([N+](=O)[O-])c2)CC1`: the IFI stood at 1.46%. The value for `CCCCCCCCCN1CC[C@@H](CCCc2ccnc3ccc(O)cc23)[C@@H](CC)C1` was 15.2%; that for `CCN1CCN(c2cc(C)c3cc(NC(=O)c4ccc(OC)c([N+](=O)[O-])c4)ccc3n2)CC1` was 5.22%. For the compound `COc1ccc([N+](=O)[O-])cc1N(Cc1ccccc1-c1ccccc1)S(=O)(=O)c1ccc(C(F)(F)F)cc1`, the IFI was determined as 1.44%. In turn, `O=C(/C=C/c1ccc(Cl)c(Cl)c1)NCCCCCN1CCC(NC(=O)Nc2ccc(C(F)(F)F)cc2)C1` (stereo not drawn) showed an IFI of 12%. Take `CC(C)(C)c1ccc(OCC(=O)NC2CCN(c3ccnc4cc(Cl)ccc34)C2)cc1` (stereo not drawn): the IFI is 9.23%. On to `O=C(Nc1cccc(-c2ccc(-c3nc4cc(C(F)(F)F)ccc4[nH]3)cc2)c1)c1c[nH]cn1`, for which the IFI came out at 6.48%.

With `O=C1c2ccccc2C(=O)N1c1ccc(S(=O)(=O)N2CCOCC2)cc1`, the IFI is -0%. Take `Oc1ccc(CCNc2nc(NCCCOc3ccccc3-c3ccc(C(F)(F)F)cc3)nc(N3CCNCC3)n2)cc1`: the IFI is 17.2%. The value for `COc1ccc2nccc([C@@H](O)CN3CCC(NCc4cc5ccccc5s4)CC3)c2c1` was 2.84%. For `COc1ccc(CNCc2cccc(-c3cccc(-c4nc5cccc(C)c5[nH]4)c3)c2)cc1`, the IFI amounted to 9.62%. Compound `CCNc1cc(C)nc(Nc2ccc(NC(=O)Cc3ccc(OC)cc3)cc2)n1` came in with an IFI of 13.5%. For the compound `Cc1ccc(C)c(Cn2ccc3nc(Cl)nc(Cl)c32)c1`, the IFI is 4.2%. The compound `O=C(Nc1cccc(-c2nn3ccccc3c2-c2ccnc(Nc3cccc(F)c3)n2)c1)c1c(F)ccc(F)c1F` registered an IFI of 1.94%.

In the case of `O=C(NCc1ccc(F)cc1)c1cnc(N2CCN(c3ccncc3)CC2)c(Cl)c1`, the IFI is -0%. Regarding `CC(C)(C)c1ccc(CN2CCC(NC(=O)c3ccc(-c4cccc(Cl)c4)s3)CC2)cc1`, the IFI came to 12.1%.

In turn, `COc1ccc(-c2ccc(NC(=O)c3ccc(F)cc3)cc2)cc1CN1CCCN(C)CC1` came in with an IFI of 2.97%. `CC(C)(C)c1cc(C(=O)N2CCN(c3ncccc3C(F)(F)F)CC2)n(Cc2ccccc2)n1` registered an IFI of 1.54%. For `Cc1cc(Nc2ncc3c(n2)N(C2CCC2)CC3)ccc1N1CCN(C)CC1` the value was 11.1%. As to `CC(C)c1ccc(NC(=O)c2ccc(CN3CCCN(Cc4cccc(Cl)c4)CC3)cc2)cc1`, the IFI is 13.5%. The value for `CN(C)C1CCN(Cc2ccc(N3CCN(Cc4cccc5[nH]ccc45)CC3)nc2)CC1` was -0%; that for `O=C(Nc1ccc(Cn2ncc(N3CCNCC3)c(Cl)c2=O)cc1)Nc1ccc(-c2ccccc2)cc1` was 6.85%. With `c1cc2[nH]c(CCCCCc3nc4cc(C5=N[C@@H]6CCCC[C@@H]6N5)ccc4[nH]3)nc2cc1C1=N[C@@H]2CCCC[C@@H]2N1`, the IFI was determined as 1.45%. `NC(=O)COc1cccc2c1CCN(CCN1CCC(NC(=O)c3ccc(-c4ccc(Cl)cc4)cc3)CC1)C2` registered an IFI of 6.2%. `COC[C@H]1CCCN1Cc1ccc(-c2ccc(-c3nc4ccccc4[nH]3)s2)cc1`: the IFI was found to be 0.91%. For `O=C(C=Cc1ccc(Cl)c(Cl)c1)NCCCCCN1CCC(CCNC(=O)c2cccc3ccccc23)CC1` the value was 3.82%; for `Cn1nc(-c2cccc(CNC3CCc4ccccc43)c2)c2cnc(NC3CCCC3)nc21` (stereo not drawn), 3.85%; for `CC1(C)NC(N)=NC(=N)N1OCCCSc1ccccc1`, 2.26%. For `Cc1nc2c(s1)c(=O)cc(CCc1cccc(F)c1F)n2CC(=O)N(Cc1ccc(-c2ccc(C(F)(F)F)cc2)cc1)C1CCN(C(C)C)CC1`, the IFI was determined as 10.3%. `CCc1ccc(NC(=O)c2ccc(CN3CCCN(CC4CCCCC4)CC3)cc2)cc1`: the IFI stood at 10.7%. On to `CN1CCC(N2CCN(Cc3ccc(-c4cccc(-c5nc6cc(F)ccc6[nH]5)c4)cc3)CC2)CC1`, for which the IFI was determined as 6.94%.

Regarding `CC[C@H](NC(=O)c1c(CC2CCN(CC(C)=O)CC2)c(-c2ccccc2)nc2ccccc12)c1ccccc1`, the IFI came out at 2.17%. Regarding `CCc1ccc(C(=O)NC(=O)c2ccccc2O)cc1`, the IFI stood at 7.28%. `Cc1ccc2c(OCCN3CCC(Cc4cc5c(cc4F)OCC(=O)N5)CC3)cc(F)cc2n1` returned an IFI of 9.56%. For `Cc1cccc2nc(-c3ccc(-c4ccc(CN5CCOCC5)cc4)cc3)[nH]c12`, the IFI was 4.23%. `CN1CCN(CCCN(Cc2csc(-c3ccc(CNCc4ccccc4)cc3)n2)S(=O)(=O)c2ccc(F)cc2)CC1` registered an IFI of 4.2%. The value for `CC(NCCc1cccc(Cl)c1)C(O)c1ccc(OCCCCCCOc2ccc(C(O)C(C)NCCc3cccc(Cl)c3)cc2)cc1` (stereo not drawn) was 13%; that for `Fc1cccc(Cl)c1-c1nc(NCCC(c2ccccc2)c2ccccc2)no1` was 1.49%; that for `CC(C)(C)c1ccccc1OCCCON1C(=N)N=C(N)NC1(C)C` was 6.29%. For `Cc1cc(C(=O)NCc2ccc(-c3c(C)noc3C)cc2)n(-c2ccc(Cl)cc2)n1` the value was 4.23%; for `COc1ccc2nccc([C@@H](O)CN3CCC(NCc4ccc(OC)c(NC=O)c4)CC3)c2c1`, 0%. With `COc1ccc(Cl)cc1NC(=O)Nc1cc(C)nc2ccccc12`, the IFI is 12.2%. The compound `COc1cc2c(OC)cccc2cc1CNCCCCCCNCc1cc2cccc(OC)c2cc1OC` gave an IFI of 7.14%. For `COc1ccc(NCCCNc2ccnc3ccccc23)cc1`, the IFI came out at 17.5%. With `CN(C)c1ccc(-c2csc(C(=O)NCC3CCN(CC4CCCCC4)C3)c2)cc1` (stereo not drawn), the IFI came out at 8%. In the case of `COc1ccc(-c2ccc(CNC3Cc4ccccc4C3)cc2)cc1S(=O)(=O)NCCN1CCCC1`, the IFI is 5.77%.

`Cc1ccc2c(=O)cc(CCc3cccc(F)c3F)n(CC(=O)N(Cc3ccc(-c4ccc(C(F)(F)F)cc4)cc3)C3CCN(C(C)C)CC3)c2n1` yielded an IFI of 10.6%. `COc1cccc2cc(C(=O)N[C@@H](CC(C)C)C(=O)N[C@H](C=NN(C)C(=O)OC(C)(C)C)Cc3ccccc3)oc12` returned an IFI of 9.09%.

The compound `Cc1cccc2nc(-c3cccc(-c4ccc(NC(=O)c5ccncc5)cc4)c3)[nH]c12` came in with an IFI of 4.42%. `Cc1cccc(CN2CCC(C(=O)Nc3ccc(-c4nc5ccccc5[nH]4)cc3)CC2)n1`: the IFI is -0%. `COc1ccc2ncc(F)c(CCN3CCC(NCc4cc(F)c5c(c4)OCCO5)CC3)c2n1` came in with an IFI of 5.43%. As to `CNCc1ccc2nc(-c3coc(Cc4cc(Cl)ccc4OCC(C)C)n3)[nH]c2c1`, the IFI was 12.2%. `O=C(Nc1cccc(-c2ccc(-c3nc4cc(F)ccc4[nH]3)cc2)c1)c1ccoc1` yielded an IFI of 9.01%. Compound `COc1cc(Cc2cnc(N)nc2N)cc(OCc2cccc(C(=O)O)c2)c1OC` registered an IFI of 2.22%. `COc1cc(C(C)C)ccc1N1CCN(CCCCNC(=O)c2ccc(NC(=O)c3ccc(Cl)cc3)cc2)CC1` gave an IFI of 4.31%.

Take `c1ccc(C(c2ccccc2)N2CCC(NCc3ccc(OCCCN4CCCCC4)cc3)CC2)cc1`: the IFI worked out at 10.2%. The value for `Cc1cc2nc(-c3ccc(/C=C/C(=O)NCc4ccc(Cl)c(Cl)c4)cc3)[nH]c2cc1C` was 3.01%; that for `FC(F)(F)c1cc(CNCCCNc2nc3ccncc3[nH]2)ccc1Cl` was 0.77%; that for `Cc1cc(N(C)C)nc(Nc2ccc(NC(=O)c3c(F)cccc3F)cc2)n1` was 2%. Turning to `O=c1cc(NCCCCNCc2ccc(Br)c(Br)c2)[nH]c2ccccc12`, the IFI came out at 4.44%. The value for `CC(C)CC(=O)Nc1cc(=O)[nH]c2nc(-c3ccccc3)nn12` was 0%; that for `O=C(/C=C/c1ccc(Cl)c(Cl)c1)NCCCCCN1CCC(NC(=O)NC2CCCCC2)CC1` was 0.67%.

Source of the values: ChEMBL document CHEMBL1157539, “Thousands of chemical starting points for antimalarial lead identification” (Nature, 2010).
